# Results reported in the supplement of paper PMC8728848.
# The other results are listed elsewhere or left out.
# B1: PpFlo2 (Pichia pastoris) (protein)
# chain: MGSSHHHHHHSSGLVPRGSHMDDSGNGDNSDTAYGCDITTNAVDGFDATIYQYNANDLRLIRDPTFMSTGYLGRNVLNKISGVTVPGFNIWNPSSRTATVYGVKNVNYYNMVLELKGYFKADVSGDYKLTLSHIDDSSMLFFGKETAFKCCDAGSIPLNEAPTDYSLFTIKPSNQVNSEVISATQYLEAGKYYPVRIVFVNALERARFDFKLTIPSGAVLDDFQNYIYQFGDLDENSCHE
# What was measured:
# Test in all cases: glycan array binding signal (z-score within array); higher = stronger binding
# Details in all cases: glycan notation: IUPAC condensed, linker removed
# [1] = molecular target: Fuc(a1-2)Gal(b1-4)GlcNAc(b1-2)[Fuc(a1-2)Gal(b1-4)GlcNAc(b1-4)]Man(a1-3)[Fuc(a1-2)Gal(b1-4)GlcNAc(b1-2)Man(a1-6)]Man(b1-4)GlcNAc(b1-4)GlcNAc
# Method in brief: (§1)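 The Consortium for Functional Glycomics database supplied 3228 glycan arrays, of which those lacking an available protein sequence were dropped. The binding signal, a within-array Z-score, was averaged across arrays of the same protein sequence and across linkers. Negative scores can be read as non-binding.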
# [2] = molecular target: Fuc(a1-2)Gal(b1-4)GlcNAc(b1-3)Gal(b1-4)GlcNAc
# Method in brief: as §1
# [3] = molecular target: Fuc(a1-2)Gal(b1-4)GlcNAc(b1-3)Gal(b1-4)GlcNAc(b1-2)Man(a1-3)[Fuc(a1-2)Gal(b1-4)GlcNAc(b1-3)Gal(b1-4)GlcNAc(b1-2)Man(a1-6)]Man(b1-4)GlcNAc(b1-4)GlcNAc
# Method in brief: as §1
# [4] = molecular target: Fuc(a1-2)Gal(b1-4)GlcNAc(b1-3)Gal(b1-4)GlcNAc(b1-3)Gal(b1-4)GlcNAc
# Method in brief: as §1
# [5] = molecular target: Fuc(a1-2)Gal(b1-4)GlcNAc(b1-3)GalNAc
# Method in brief: as §1
# [6] = molecular target: Fuc(a1-2)Gal(b1-4)GlcNAc(b1-3)[Fuc(a1-2)Gal(b1-4)GlcNAc(b1-6)]GalNAc
# Method in brief: as §1
# [7] = molecular target: Fuc(a1-2)Gal(b1-4)GlcNAc(b1-3)[Fuc(a1-3)[Gal(b1-4)]GlcNAc(b1-6)]Gal(b1-4)Glc
# Method in brief: as §1
# [8] = molecular target: Fuc(a1-2)Gal(b1-4)GlcNAc(b1-6)GalNAc
# Method in brief: as §1
# [9] = molecular target: Fuc(a1-2)Gal(b1-4)GlcNAc6S
# Method in brief: as §1
# [10] = molecular target: Fuc(a1-2)Gal(b1-4)[Fuc(a1-3)]GlcNAc
# Method in brief: as §1
# [11] = molecular target: Fuc(a1-2)Gal(b1-4)[Fuc(a1-3)]GlcNAc(b1-2)Man(a1-3)[Fuc(a1-2)Gal(b1-4)[Fuc(a1-3)]GlcNAc(b1-2)Man(a1-6)]Man(b1-4)GlcNAc(b1-4)GlcNAc
# Method in brief: as §1
# [12] = molecular target: Fuc(a1-2)Gal(b1-4)[Fuc(a1-3)]GlcNAc(b1-2)Man(a1-3)[Fuc(a1-2)Gal(b1-4)[Fuc(a1-3)]GlcNAc(b1-2)Man(a1-6)]Man(b1-4)GlcNAc(b1-4)[Fuc(a1-6)]GlcNAc
# Method in brief: as §1
# [13] = molecular target: Fuc(a1-2)Gal(b1-4)[Fuc(a1-3)]GlcNAc(b1-2)[Fuc(a1-2)Gal(b1-4)[Fuc(a1-3)]GlcNAc(b1-4)]Man(a1-3)[Fuc(a1-2)Gal(b1-4)[Fuc(a1-3)]GlcNAc(b1-2)Man(a1-6)]Man(b1-4)GlcNAc(b1-4)GlcNAc
# Method in brief: as §1
# [14] = molecular target: Fuc(a1-2)Gal(b1-4)[Fuc(a1-3)]GlcNAc(b1-3)Gal(b1-4)[Fuc(a1-3)]GlcNAc
# Method in brief: as §1
# [15] = molecular target: Fuc(a1-2)Gal(b1-4)[Fuc(a1-3)]GlcNAc(b1-3)Gal(b1-4)[Fuc(a1-3)]GlcNAc(b1-3)Gal(b1-4)[Fuc(a1-3)]GlcNAc
# Method in brief: as §1
# [16] = molecular target: Fuc(a1-2)Gal(b1-4)[Fuc(a1-3)]GlcNAc(b1-3)GalNAc
# Method in brief: as §1
# [17] = molecular target: Fuc(a1-2)Gal(b1-4)[Fuc(a1-3)]GlcNAc(b1-3)[Neu5Ac(a2-6)Gal(b1-4)GlcNAc(b1-6)]Gal(b1-4)Glc
# Method in brief: as §1
# [18] = molecular target: Fuc(a1-2)Gal3S(b1-4)GlcNAc
# Method in brief: as §1
# [19] = molecular target: Fuc(a1-2)Gal6S(b1-3)GlcNAc
# Method in brief: as §1
# [20] = molecular target: Fuc(a1-2)Gal6S(b1-3)GlcNAc6S
# Method in brief: as §1
# [21] = molecular target: Fuc(a1-2)Gal6S(b1-4)Glc
# Method in brief: as §1
# [22] = molecular target: Fuc(a1-2)Gal6S(b1-4)Glc6S
# Method in brief: as §1
# [23] = molecular target: Fuc(a1-2)Gal6S(b1-4)GlcNAc
# Method in brief: as §1
# [24] = molecular target: Fuc(a1-2)[Gal(a1-3)]Gal
# Method in brief: as §1
# [25] = molecular target: Fuc(a1-2)[Gal(a1-3)]Gal(b1-3)GalNAc
# Method in brief: as §1
# [26] = molecular target: Fuc(a1-2)[Gal(a1-3)]Gal(b1-3)GalNAc(b1-3)Gal(a1-4)Gal(b1-4)Glc
# Method in brief: as §1
# [27] = molecular target: Fuc(a1-2)[Gal(a1-3)]Gal(b1-3)GlcNAc
# Method in brief: as §1
# [28] = molecular target: Fuc(a1-2)[Gal(a1-3)]Gal(b1-3)GlcNAc(b1-2)Man(a1-3)[Fuc(a1-2)[Gal(a1-3)]Gal(b1-3)GlcNAc(b1-2)Man(a1-6)]Man(b1-4)GlcNAc(b1-4)GlcNAc
# Method in brief: as §1
# [29] = molecular target: Fuc(a1-2)[Gal(a1-3)]Gal(b1-3)GlcNAc(b1-2)Man(a1-3)[Fuc(a1-2)[Gal(a1-3)]Gal(b1-3)GlcNAc(b1-2)Man(a1-6)]Man(b1-4)GlcNAc(b1-4)[Fuc(a1-6)]GlcNAc
# Method in brief: as §1
# [30] = molecular target: Fuc(a1-2)[Gal(a1-3)]Gal(b1-3)GlcNAc(b1-3)GalNAc
# Method in brief: as §1
binder,measurement,setting,value
B1,glycan array binding signal (z-score),[1],-0.29
same,glycan array binding signal (z-score),[2],-0.281
same,glycan array binding signal (z-score),[3],-0.217
same,glycan array binding signal (z-score),[4],-0.254
same,glycan array binding signal (z-score),[5],-0.251
same,glycan array binding signal (z-score),[6],0.265
same,glycan array binding signal (z-score),[7],-0.268
same,glycan array binding signal (z-score),[8],-0.265
same,glycan array binding signal (z-score),[9],-0.301
same,glycan array binding signal (z-score),[10],-0.294
same,glycan array binding signal (z-score),[11],-0.332
same,glycan array binding signal (z-score),[12],-0.272
same,glycan array binding signal (z-score),[13],-0.289
same,glycan array binding signal (z-score),[14],-0.283
same,glycan array binding signal (z-score),[15],-0.279
same,glycan array binding signal (z-score),[16],-0.275
same,glycan array binding signal (z-score),[17],-0.268
same,glycan array binding signal (z-score),[18],-0.27
same,glycan array binding signal (z-score),[19],-0.272
same,glycan array binding signal (z-score),[20],-0.262
same,glycan array binding signal (z-score),[21],-0.299
same,glycan array binding signal (z-score),[22],-0.287
same,glycan array binding signal (z-score),[23],-0.33
same,glycan array binding signal (z-score),[24],-0.295
same,glycan array binding signal (z-score),[25],-0.3
same,glycan array binding signal (z-score),[26],-0.275
same,glycan array binding signal (z-score),[27],-0.297
same,glycan array binding signal (z-score),[28],-0.284
same,glycan array binding signal (z-score),[29],-0.293
same,glycan array binding signal (z-score),[30],-0.288
